# Test results published in PubChem BioAssay (NCI).
# Some compounds were tested as several samples or in several runs, with calls that do not always agree.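 For each line, cells grew in 96-well plates with the test compound present at a single concentration for 48 hours.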 Some entries of the source have several records that differ or are many. They are shown here; other results are not. Rule for the calls: active = growth percent below 10; inactive = the rest. There may be further records. These are repeated runs of one drug, at its own concentration, as given; one value stands for one run. Marks such as (2×) stand for listed records that agree.
# Legend:
# Assay in all cases: NCI-60 one-dose screen, 48 h (100 = growth as untreated, 0 = no growth, -100 = all killed)
# Settings in all cases: 2.5 mM
# DU-145 prostate = test system: DU-145 prostate
# K-562 leukemia = test system: K-562 leukemia
# MALME-3M melanoma = test system: MALME-3M melanoma
smiles,measurement,setting,value
O=c1[nH]cc(F)c(=O)[nH]1,growth,DU-145 prostate; runs of 1998,"active: 9.35, 8.89, -12.6, -2.65, -17.5% and inactive: 30.5, 22.4, 20.1, 26.5, 32, 38, 10.1, 24, 17.4, 29.7, 24.9, 25.3, 27.9, 23.4, 20.8, 22.1, 11.6, 43.3, 15.2, 14.8%"
same,growth,DU-145 prostate; runs of 1999,"inactive: 34.3, 20.4, 47.1, 27.1% and active: -6.27, -6.29, -51.4, -13.7, 0.192, -46.6, -69.6, -0.638, 0.227, -68.5, -77.5, -100, -38%"
same,growth,DU-145 prostate; runs of 2000,"active: 1.34, 5.87, -25.2, 0.984%"
same,growth,K-562 leukemia; runs of 1991,"inactive: 19.4, 21.5 (2×), 23.2, 18.4 (2×), 12.2, 19.9, 16.4, 13.4, 58.8, 24.5, 20.1, 21.4 (2×), 52.1 (2×), 15.8, 21.3, 12.9%"
same,growth,K-562 leukemia; runs of 1992,"inactive: 27.9, 21.7 (2×), 19, 22.2 (3×), 30.6, 22.4 (2×), 13.9 (2×), 19.4 (3×), 16.1 (4×), 24.4, 18.1, 13.5, 25.7 (3×), 24.9, 15.8, 13.7, 39.8, 47.5, 20.8 (3×), 16, 24.6, 12.5, 25.5, 21, 22.3 (4×), 22.5 (2×), 25.8, 13.2 (2×), 20.2 (2×), 27.6, 17.4 (2×), 23.9 (2×), 24.5, 18.5, 15.1, 25.3 (2×), 24.1, 27, 23.3, 22.6, 15.4, 11.5, 17.1, 35.5, 14.1, 16.4, 17, 16.2, 16.6 (2×), 16.9, 21.6, 17.9, 20.6 (2×), 16.3, 21.9, 21.3, 19.7 (2×), 21.2 (2×), 27.8, 17.6, 13.1 (2×), 18.4, 45.5, 14.8, 19.6 (2×), 33.3, 22, 14, 12.2, 46.3, 15.6, 40.5, 17.7, 26.7, 14.5, 55.2, 25.9, 20.9, 25.1, 29, 26.9, 18.7% and active: 9.83, 8.83, 5.67, 6.2, -5.13, -40.6, -9.5, 5.71, -62.7%"
same,growth,K-562 leukemia; runs of 1993,"inactive: 18.4 (2×), 23.4, 17.3, 38.2, 68.2, 14.8 (2×), 22.2, 16.8, 22.8, 45.4, 10.4, 14.5, 30.8, 21.2, 23, 16.3, 61.5, 30.1, 24.8, 19.4, 17.5, 20.2, 14.6, 19, 26.3, 17.4, 27.1, 18.8, 38.4, 33.3, 14.7, 13.2, 25.5, 20.3, 36.5, 25.1, 15.9 (2×), 15.6, 28.4% and active: 6.31, -7.94, 5.79, 6.24, 1.17%"
same,growth,K-562 leukemia; runs of 1994,"inactive: 17.7, 16.8 (2×), 20.1, 14.8, 36.5, 36.1, 21.3, 23.9, 15.9, 69.8, 16.3, 17.9, 18.2, 15.2, 15.6, 11.9, 40.3, 27.9, 28.4, 12.5, 18.8, 21.4, 23.3, 27.6, 10.6, 18.1, 35.8% and active: 6.17, 7.27, 4.85, -7.22%"
same,growth,K-562 leukemia; runs of 1995,"inactive: 16.3, 23.4, 16 (3×), 17.6, 14.3, 20.4, 14.5, 12.2, 14.7, 14.9, 11, 18.5, 26, 27.6, 18.3, 12.4, 12.6, 24.4, 55.6, 14.4, 27.7, 17.2, 17.9, 18.4% and active: -50.2, -14.2, 7.32, 5.84, 8.59, 6.89, 8.25, 3.59, -21.3, 5.8%"
same,growth,K-562 leukemia; runs of 1996,"inactive: 23.3, 47.8, 10.5, 23.6, 21, 19, 12.5, 122, 13.5, 28.8, 15.8, 11.4, 14, 10.9, 15.5, 10.2, 11.6, 23.7, 17.4 (2×), 18, 19.6, 30.2, 78.6, 15.1, 14.5, 12.9 (2×), 50.1, 28.5, 25.4, 28.1, 22.3% and active: 4.6, 6.05, 2.37, -2.79, 6.09, 5.99, 2.65, -21.9, 7.6, 8.11, 3.93, 2.44, -30.1, 6.94%"
same,growth,K-562 leukemia; runs of 1997,"active: 6.51, -9.95, -87.3, -32, -27.1, -4.12% and inactive: 21.9, 20.8, 38.2, 13.4, 22.7, 11.7, 31.6, 16.4, 56.8, 12.6, 36, 17.4, 33.5, 18.7, 27.4, 116, 20.4, 11.2, 61.1, 27, 18.6, 18.3, 14.9, 43.3, 10.9, 40.6, 43.1, 14%"
same,growth,K-562 leukemia; runs of 1998,"inactive: 19.4, 28, 33.2, 33.9 (2×), 46.5, 30.9, 23.9, 18, 19.6, 15.5 (2×), 22.9, 31.3, 19 (2×), 34.3, 19.2, 14.2, 26.6% and active: 3.16, -13.4, -15.5, 9.36%"
same,growth,K-562 leukemia; runs of 1999,"active: 9.8, 0.586, 1.17, 1.14, -85.5, -19.7, 1.23, 4.63, 0.416, 4.73, 4.01% and inactive: 30.3, 21, 55.3, 17.6, 46.8, 37.5, 115%"
same,growth,K-562 leukemia; runs of 2000,"active: 1.06%, 7.52%, 1.08% and inactive: 14.6%"
same,growth,MALME-3M melanoma; runs of 1991,"active: 0.906, -12.3, 9.92, -0.232, 6.93, 7.48, 5.66% and inactive: 29.6, 30.6, 33.9, 20.5, 18.5, 26.8, 15.9, 23.9, 39.8, 40.5, 21.1, 39.3%"
same,growth,MALME-3M melanoma; runs of 1992,"inactive: 17.2, 17.1, 10.4, 15.2, 11.6, 26.8, 20.9, 20.7, 16.4 (2×), 29.5, 20.3, 52.5, 11.1, 41.2, 49.6, 17.9, 24.8, 15.5, 17.8, 11.2, 35.7, 32.7, 48.9, 41, 12.5, 10.6 (2×), 26.5, 14.3, 28.5, 34.4, 22.1, 10.3, 12.3, 102, 17.5, 16.3, 21.5, 11.8, 18.7, 26 (2×), 34.8, 23, 25.3 (2×), 15.8, 19.7, 25.1, 14.2 (2×), 19, 33.9 (2×), 13.9, 11.4 (2×), 15.7, 14.9, 17, 11.3, 43.1, 26.2, 21.7, 24.6, 22.9, 10.2, 37.8, 21.9, 30% and active: 5.27, 1.71, -5.9, 0.54, 7.09, 2.21, -1.96, 3.99, 9.12, -4.06, 4.56, 5.39, 4.09, -8.17, 4.14, 1.25, 0.321, -2.51, -21.5, -0.548, -34.5, -1.55, 3.84, 8.17, 7.21, 8.57, 5.44, -8.82, -8.96, 4.91, 6.62, 9.95, 5.5, 5.25, -15.8, -8.43, -8.84, 0.803, 5.79, -8.26, -0.219, 9.19, -21, -11.8, -9.59, -5.43%"
